Assay results: US9873709B2 (priority 2013, dated 2018)

target: T1, isolated recombinant JAK1 kinase domain (Homo sapiens (Human), UniProt P23458); assay: not given; conditions: read-out: JAK1 Ki; isolated recombinant JAK1 kinase domain, 25 μM ATP
T1 sequence (P23458 875-1153): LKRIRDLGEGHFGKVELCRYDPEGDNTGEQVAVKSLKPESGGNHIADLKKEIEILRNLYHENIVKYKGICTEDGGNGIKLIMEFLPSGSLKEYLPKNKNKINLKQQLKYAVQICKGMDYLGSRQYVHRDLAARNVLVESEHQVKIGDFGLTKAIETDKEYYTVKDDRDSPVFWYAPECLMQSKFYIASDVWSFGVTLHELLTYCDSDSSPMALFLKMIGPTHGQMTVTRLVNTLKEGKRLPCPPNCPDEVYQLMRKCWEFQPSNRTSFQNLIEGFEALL

Ki	Compound
0.76 nM	O=C(NCCc1ccccn1)c1ccc(Nc2nc3c(C4=CCN(C(=O)CCC(F)(F)F)CC4)cccn3n2)cc1 [Example 2-478, N-[2-(2-pyridyl)ethyl]-4-[[8-[1-(4,4,4-trifluorobutanoyl)-3,6-dihydro-2H-pyridin-4-yl]-[1,2,4]triazolo[1,5-a]pyridin-2-yl]amino]benzamide]
4.46 nM	CN1CCC(N(C)C(=O)c2ccc(Nc3nc4c(C5=CCN(C(=O)N6CC(C)(C)C6)CCC5)cccn4n3)cc2)CC1 [Example 2-480, 4-[[8-[1-(3,3-dimethylazetidine-1-carbonyl)-2,3,4,7-tetrahydroazepin-5-yl]-[1,2,4]triazolo[1,5-a]pyridin-2-yl]amino]-N-methyl-N-(1-methyl-4-piperidyl)benzamide]
266 nM	CN1CCC(N(C)C(=O)c2ccc(Nc3nc4c(C5=CCN(C(=O)N6CC(C)(C)C6)C5)cccn4n3)cc2)CC1 [Example 2-481, 4-[[8-[1-(3,3-dimethylazetidine-1-carbonyl)-2,5-dihydropyrrol-3-yl]-[1,2,4]triazolo[1,5-a]pyridin-2-yl]amino]-N-methyl-N-(1-methyl-4-piperidyl)benzamide]
108 nM	NCC1(c2ccccc2)CCN(c2cccn3nc(NC(=O)C4CC4)nc23)CC1 [Example 3-1, N-[8-[4-(aminomethyl)-4-phenyl-1-piperidyl]-[1,2,4]triazolo[1,5-a]pyridin-2-yl]cyclopropane carboxamide; hydrochloride]

target: T1, isolated recombinant JAK1 kinase domain; assay: biochemical; conditions: not given

Compound	Ki
CC(=O)N1CCN(c2cccn3nc(Nc4ccc(C(=O)N(C)C5CCN(C)CC5)cc4)nc23)CC1 [Example 1-10, 4-[[8-(4-acetylpiperazin-1-yl)-[1,2,4]triazolo[1,5-a]pyridin-2-yl]amino]-N-methyl-N-(1-methyl-4-piperidyl)benzamide]	321 nM
CN1CCC(N(C)C(=O)c2ccc(Nc3nc4c(N5CCC(C#N)CC5)cccn4n3)cc2)CC1 [Example 1-11, 4-[[8-(4-cyano-1-piperidyl)-[1,2,4]triazolo[1,5-a]pyridin-2-yl]amino]-N-methyl-N-(1-methyl-4-piperidyl)benzamide]	25.9 nM
CN1CCC(N(C)C(=O)c2ccc(Nc3nc4c(N5CCCCC5)cccn4n3)cc2)CC1 [Example 1-12, N-methyl-N-(1-methyl-4-piperidyl)-4-[[8-(1-piperidyl)-[1,2,4]triazolo[1,5-a]pyridin-2-yl]amino]benzamide; dihydrochloride]	406 nM
CN1CCC(N(C)C(=O)c2ccc(Nc3nc4c(N5CCN(c6ccccc6)CC5)cccn4n3)cc2)CC1 [Example 1-13, N-methyl-N-(1-methyl-4-piperidyl)-4-[[8-(4-phenylpiperazin-1-yl)-[1,2,4]triazolo[1,5-a]pyridin-2-yl]amino]benzamide]	58.4 nM
CN1CCC(N(C)C(=O)c2ccc(Nc3nc4c(N5CCC(O)(c6ccc(Cl)cc6)CC5)cccn4n3)cc2)CC1 [Example 1-17, 4-[[8-[4-(4-chlorophenyl)-4-hydroxy-1-piperidyl]-[1,2,4]triazolo[1,5-a]pyridin-2-yl]amino]-N-methyl-N-(1-methyl-4-piperidyl)benzamide]	2.91 nM
CN1CCC(N(C)C(=O)c2ccc(Nc3nc4c(N5CCC(O)(c6cccnc6)CC5)cccn4n3)cc2)CC1 [Example 1-19, 4-[[8-[4-hydroxy-4-(3-pyridyl)-1-piperidyl]-[1,2,4]triazolo[1,5-a]pyridin-2-yl]amino]-N-methyl-N-(1-methyl-4-piperidyl)benzamide]	178 nM
CN1CCC(N(C)C(=O)c2ccc(Nc3nc4c(N5CCC(O)(c6ccc(F)cc6)CC5)cccn4n3)cc2)CC1 [Example 1-37, 4-[[8-[4-(4-fluorophenyl)-4-hydroxy-1-piperidyl]-[1,2,4]triazolo[1,5-a]pyridin-2-yl]amino]-N-methyl-N-(1-methyl-4-piperidyl)benzamide]	23.6 nM
CC(C)c1ccc(C2(O)CCN(c3cccn4nc(Nc5ccc(C(=O)N(C)C6CCN(C)CC6)cc5)nc34)CC2)cc1 [Example 1-38, 4-[[8-[4-hydroxy-4-(4-isopropylphenyl)-1-piperidyl]-[1,2,4]triazolo[1,5-a]pyridin-2-yl]amino]-N-methyl-N-(1-methyl-4-piperidyl)benzamide]	6.86 nM
CNC1CN(C(=O)c2ccc(Nc3nc4c(N5CCC(O)(c6ccc(Cl)cc6)CC5)cccn4n3)cc2)C1 [Example 1-47, [4-[[8-[4-(4-chlorophenyl)-4-hydroxy-1-piperidyl]-[1,2,4]triazolo[1,5-a]pyridin-2-yl]amino]phenyl]-[3-(methylamino)azetidin-1-yl]methanone]	1.35 nM
CC(C)(CNC(=O)c1ccc(Nc2nc3c(N4CCC(O)(c5ccc(Cl)cc5)CC4)cccn3n2)cc1)N1CCOCC1 [Example 1-94, 4-[[8-[4-(4-chlorophenyl)-4-hydroxy-1-piperidyl]-[1,2,4]triazolo[1,5-a]pyridin-2-yl]amino]-N-(2-methyl-2-morpholino-propyl)benzamide]	2.58 nM
NCCNC(=O)c1ccc(Nc2nc3c(N4CCC(O)(c5ccc(Cl)cc5)CC4)cccn3n2)cc1 [Example 1-175, N-(2-aminoethyl)-4-[[8-[4-(4-chlorophenyl)-4-hydroxy-1-piperidyl]-[1,2,4]triazolo[1,5-a]pyridin-2-yl]amino]benzamide]	1.74 nM
O=C(c1ccc(Nc2nc3c(N4CCC(O)(c5ccc(Cl)cc5)CC4)cccn3n2)cc1)N1CCNCC1 [Example 1-177, [4-[[8-[4-(4-chlorophenyl)-4-hydroxy-1-piperidyl]-[1,2,4]triazolo[1,5-a]pyridin-2-yl]amino]phenyl]-piperazin-1-yl-methanone]	2.08 nM
O=C(c1ccc(Nc2nc3c(N4CCC(O)(c5ccc(Cl)cc5)CC4)cccn3n2)cc1)N1CCC2(CCCN2)C1 (stereo not shown) [Example 1-208, [4-[[8-[4-(4-chlorophenyl)-4-hydroxy-1-piperidyl]-[1,2,4]triazolo[1,5-a]pyridin-2-yl]amino]phenyl]-(1,7-diazaspiro[4.4]nonan-7-yl)methanone]	2.31 nM
O=C(c1ccc(Nc2nc3c(N4CCC(O)(c5ccc(Cl)cc5)CC4)cccn3n2)cc1)N1C[C@H]2CN[C@H]2C1 [Example 1-232, [4-[[8-[4-(4-chlorophenyl)-4-hydroxy-1-piperidyl]-[1,2,4]triazolo[1,5-a]pyridin-2-yl]amino]phenyl]-[(1R,5R)-3,6-diazabicyclo[3.2.0]heptan-3-yl]methanone]	2.83 nM
CNC1CN(C(=O)c2ccc(Nc3nc4c(N5CCC(CO)(c6ccc(Cl)cc6)CC5)cccn4n3)cc2)C1 [Example 1-283, [4-[[8-[4-(4-chlorophenyl)-4-(hydroxymethyl)-1-piperidyl]-[1,2,4]triazolo[1,5-a]pyridin-2-yl]amino]phenyl]-[3-(methylamino)azetidin-1-yl]methanone]	0.18 nM
CN1CCC(N(C)C(=O)c2ccc(Nc3nc4c(N5C[C@@H]6C[C@](O)(c7ccccc7)C[C@@H]6C5)cccn4n3)cc2)CC1 [Example 1-292]	142 nM

The remaining lines, values ahead:

Ki	Compound
5.01 nM	CCOC(=O)N1CC=C(c2cccn3nc(Nc4ccc(C(=O)N5CCO[C@@H]6CNC[C@@H]65)cc4)nc23)CC1 [Example 2-72, ethyl 4-[2-[4-[(4aS,7aR)-3,4a,5,6,7,7a-hexahydro-2H-pyrrolo[3,4-b][1,4]oxazine-4-carbonyl]anilino]-[1,2,4]triazolo[1,5-a]pyridin-8-yl]-3,6-dihydro-2H-pyridine-1-carboxylate]
1.73 nM	CCOC(=O)N1CC=C(c2cccn3nc(Nc4ccc(C(=O)NCC5CCCCN5)cc4)nc23)CC1 (stereo not shown) [Example 2-114, ethyl 4-[2-[4-(2-piperidylmethylcarbamoyl)anilino]-[1,2,4]triazolo[1,5-a]pyridin-8-yl]-3,6-dihydro-2H-pyridine-1-carboxylate]
0.66 nM	O=C(CCC(F)(F)F)N1CC=C(c2cccn3nc(Nc4ccc(C(=O)N5CCCC5c5cccnc5)cc4)nc23)CC1 (stereo not shown) [Example 2-145, 4,4,4-trifluoro-1-[4-[2-[4-[2-(3-pyridyl)pyrrolidine-1-carbonyl]anilino]-[1,2,4]triazolo[1,5-a]pyridin-8-yl]-3,6-dihydro-2H-pyridin-1-yl]butan-1-one]
6.81 nM	CC1CCN(CCNC(=O)c2ccc(Nc3nc4c(C5=CCN(C(=O)CCC(F)(F)F)CC5)cccn4n3)cc2)CC1 [Example 2-147, N-[2-(4-methyl-1-piperidyl)ethyl]-4-[[8-[1-(4,4,4-trifluorobutanoyl)-3,6-dihydro-2H-pyridin-4-yl]-[1,2,4]triazolo[1,5-a]pyridin-2-yl]amino]benzamide]
4.13 nM	CN1CCC(N(C)C(=O)c2ccc(Nc3nc4c(C5=CCN(C(=O)NCc6ccccc6)CC5)cccn4n3)cc2)CC1 [Example 2-222, N-benzyl-4-[2-[4-[methyl-(1-methyl-4-piperidyl)carbamoyl]anilino]-[1,2,4]triazolo[1,5-a]pyridin-8-yl]-3,6-dihydro-2H-pyridine-1-carboxamide]
3.28 nM	CCOC(=O)N1CC=C(c2cccn3nc(Nc4ccc(C(=O)N5CC[C@H]6CN(C)C[C@H]65)cc4)nc23)CC1 [Example 2-244, ethyl 4-[2-[4-[(3aS,6aS)-5-methyl-2,3,3a,4,6,6a-hexahydropyrrolo[2,3-c]pyrrole-1-carbonyl]anilino]-[1,2,4]triazolo[1,5-a]pyridin-8-yl]-3,6-dihydro-2H-pyridine-1-carboxylate]
1.34 nM	CCOC(=O)N1CC=C(c2cccn3nc(Nc4ccc(C(=O)N[C@H]5CCCNC5)cc4)nc23)CC1 [Example 2-250, ethyl 4-[2-[4-[[(3S)-3-piperidyl]carbamoyl]anilino]-[1,2,4]triazolo[1,5-a]pyridin-8-yl]-3,6-dihydro-2H-pyridine-1-carboxylate]
1.94 nM	O=C(CCC(F)(F)F)N1CC=C(c2cccn3nc(Nc4ccc(C(=O)N5CCCC56CCNCC6)cc4)nc23)CC1 [Example 2-258, 1-[4-[2-[4-(1,8-diazaspiro[4.5]decane-1-carbonyl)anilino]-[1,2,4]triazolo[1,5-a]pyridin-8-yl]-3,6-dihydro-2H-pyridin-1-yl]-4,4,4-trifluoro-butan-1-one]

Where a name gives a salt, the structure may show the parent alone.
